Experimental data taken from article PMC11360281 (Viruses, 2024).

Tests used:
Assay in all cases: microbe, parasite or virus in culture
Format in all cases: cell-based
[1] = test system: HCV genotype 1a (strain H77S.3); settings: Hepatitis C virus, Huh-7, read-out: EC50 GT 1a
[2] = test system: wild-type HCV GT 1b full-length RNA (HCV-N.2-GLuc); settings: for EC50: Hepatitis C virus, GT1B, wild-type HCV-N.2-GLuc
[3] = test system: HCV GT 1b (Con1) replicon; settings: Hepatitis C virus, GT1B

Structure (SMILES) | EC50 [1] | EC50 ([2]; Huh-5-2, cured DMSO-adapted cells) | EC50 ([2]; Huh-5-2, cured cells previously adapted with 36 (25xEC50)) | 36/DMSO EC50 ratio ([2]; cured 36-adapted vs cured DMSO-adapted cells) | EC50 ([3]; Huh-5-2, DMSO-adapted Huh5-2 replicon cells, 30 passages) | EC50 ([3]; Huh-5-2, Huh5-2 replicon cells adapted with Cmp 36 25xEC50, 30 passages)
O=C1Cn2c(cc3cc(Cl)ccc32)C(=O)N1O [Compound 30] | 2.79 ± 0.48 µM |  |  |  |  | 
O=C1Cn2c(cc3cccc([N+](=O)[O-])c32)C(=O)N1O [Compound 36] | 2.57 ± 0.34 µM | 3.04 ± 0.13 µM | 3.53 ± 0.19 µM | 1.16 | 3.13 ± 0.56 µM | 11.5 ± 2.77 µM
